# The supplement of paper PMC4604168 (melanoma cell lines)
# Some of the results follow. Single values are uncertain, as repeats are few or missing.
# Tests used:
# Test in all cases: cell count relative to DMSO control; melanoma cells; higher = more viable cells
# Conditions in all cases: library dose: low library concentration; 72 h
# [1] = tested on: MZ2-MEL
# [2] = tested on: MeWo
# [3] = tested on: RPMI7951
# [4] = tested on: RVH-421
# [5] = tested on: SkMel28
# [6] = tested on: SkMel2
# [7] = tested on: SkMel30
# [8] = tested on: SkMel5
# [9] = tested on: UACC257
# [10] = tested on: UACC62
# [11] = tested on: WM115
# [12] = tested on: WM1716
# [13] = tested on: WM1745
# [14] = tested on: WM3526
# [15] = tested on: WM3619
# [16] = tested on: WM451Lu
# 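Also: cell number obtained by counting DAPI-stained nuclei in high-throughput microscope images with image analysis software, screen run in 1,536-well plates.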
SMILES,cell count [1] [%],cell count [2] [%],cell count [3] [%],cell count [4] [%],cell count [5] [%],cell count [6] [%],cell count [7] [%],cell count [8] [%],cell count [9] [%],cell count [10] [%],cell count [11] [%],cell count [12] [%],cell count [13] [%],cell count [14] [%],cell count [15] [%],cell count [16] [%]
"O=C(O)[C@@H]1[O][Sb](=[O])([O][Sb]2(=[O])[O][C@H]([C@H](O)CO)[C@H](O)[C@H](C(=O)O)[O]2)[O][C@H]([C@H](O)CO)[C@@H]1O (some centres undefined) [stibogluconate] + Cc1cc(N2CCOCC2)cc2[nH]c(-c3c(NC[C@@H](O)c4cccc(Cl)c4)cc[nH]c3=O)nc12 [BMS536924] (first compound 2 µM, partner dose 0.2 µM)",111,87.2,122,126,103,89.9,95,87,92.2,89.5,112,110,89.6,89.1,94.8,94.3
"O=C(O)c1ccc2c(c1)nc(Nc1cccc(Cl)c1)c1ccncc12 + COC(=O)c1sccc1S(=O)(=O)Nc1ccc(Nc2ccccc2)cc1OC [GSK0660] (first compound 0.4 µM, partner dose 1 µM)",81.8,101,93.7,121,116,114,98.4,121,96.7,103,113,89.4,83.3,88.8,111,116
"Cn1nnc2c(C(N)=O)ncn2c1=O [temozolomide] + CO[C@@H]1[C@H](N(C)C(=O)c2ccccc2)C[C@H]2O[C@]1(C)n1c3ccccc3c3c4c(c5c6ccccc6n2c5c31)C(=O)NC4 [Midostaurin] (first compound 2 µM, partner dose 0.08 µM)",99,83.7,98.3,103,85.3,93.1,94.3,98.9,93.2,84.7,78.7,80.1,102,83.1,85.9,85
"O=C(O)c1ccc2c(c1)nc(Nc1cccc(Cl)c1)c1ccncc12 + COc1cc2c(Oc3ccc4[nH]c(C)cc4c3F)ncnc2cc1OCCCN1CCCC1 [cediranib] (first compound 0.4 µM, partner dose 0.4 µM)",91.5,91.4,112,116,104,94.4,78.4,100,104,91.6,101,82,96.8,78.7,102,80.5
"O=C(O)[C@@H]1[O][Sb](=[O])([O][Sb]2(=[O])[O][C@H]([C@H](O)CO)[C@H](O)[C@H](C(=O)O)[O]2)[O][C@H]([C@H](O)CO)[C@@H]1O (some centres undefined) [stibogluconate] + CO[C@@H]1[C@H](N(C)C(=O)c2ccccc2)C[C@H]2O[C@]1(C)n1c3ccccc3c3c4c(c5c6ccccc6n2c5c31)C(=O)NC4 [Midostaurin] (first compound 2 µM, partner dose 0.08 µM)",89,95.2,68.8,93,92.5,97.8,124,103,117,104,78.7,75.2,88.3,106,109,110
"O=C(O)c1ccc2c(c1)nc(Nc1cccc(Cl)c1)c1ccncc12 + CCN(CC)CCCCNc1ncc2cc(-c3cc(OC)cc(OC)c3)c(NC(=O)NC(C)(C)C)nc2n1 [PD173074] (first compound 0.4 µM, partner dose 0.1 µM)",91.5,95.2,109,96.9,104,99.5,96.6,101,77.2,94.8,93.8,92.3,89.2,100,92.4,85.8
"Cn1nnc2c(C(N)=O)ncn2c1=O [temozolomide] + CC(C)(C)c1cnc(CSc2cnc(NC(=O)C3CCNCC3)s2)o1 [SNS-032] (first compound 2 µM, partner dose 0.01 µM)",96.3,101,83.4,104,74.7,110,128,112,88.5,66.3,102,74.4,101,86,84.3,88.7
"O=C(O)[C@@H]1[O][Sb](=[O])([O][Sb]2(=[O])[O][C@H]([C@H](O)CO)[C@H](O)[C@H](C(=O)O)[O]2)[O][C@H]([C@H](O)CO)[C@@H]1O (some centres undefined) [stibogluconate] + C=CCn1c(=O)c2cnc(Nc3ccc(N4CCN(C)CC4)cc3)nc2n1-c1cccc(C(C)(C)O)n1 [MK1775] (first compound 2 µM, partner dose 0.02 µM)",102,90.6,82.5,89.7,79.6,99,94.1,95.6,72.5,98.1,83.3,83.7,56.4,87,88.1,116
"O=C(O)c1ccc2c(c1)nc(Nc1cccc(Cl)c1)c1ccncc12 + Cn1cncc1[C@@](N)(c1ccc(Cl)cc1)c1ccc2c(c1)c(-c1cccc(Cl)c1)cc(=O)n2C [tipifarnib] (first compound 0.4 µM, partner dose 0.01 µM)",101,93.1,94.5,94,91.1,85.9,94.8,117,90.3,73.6,99.7,79.5,84.6,79.1,62.1,77.7
"O=C(O)c1ccc2c(c1)nc(Nc1cccc(Cl)c1)c1ccncc12 + CCc1ccc(CCOc2ccc(CC3SC(=O)NC3=O)cc2)nc1 [pioglitazone] (first compound 0.4 µM, partner dose 2 µM)",102,104,105,99.2,93.7,97.9,91.1,97.3,103,110,104,87.7,98.6,84.7,98,92.2
"O=C(Nc1cc(C(F)(F)F)cc(C(F)(F)F)c1)c1cc(Cl)ccc1O + Cc1cc(N2CCOCC2)cc2[nH]c(-c3c(NC[C@@H](O)c4cccc(Cl)c4)cc[nH]c3=O)nc12 [BMS536924] (first compound 0.016 µM, partner dose 0.2 µM)",107,87.2,97.3,132,69.2,86.4,91.8,83.6,73.3,100,90.8,102,74,77.9,111,105
"O=C(Nc1cc(C(F)(F)F)cc(C(F)(F)F)c1)c1cc(Cl)ccc1O + Cn1cncc1[C@@](N)(c1ccc(Cl)cc1)c1ccc2c(c1)c(-c1cccc(Cl)c1)cc(=O)n2C [tipifarnib] (first compound 0.016 µM, partner dose 0.01 µM)",94.5,85.9,78.1,104,78.2,79.4,92.1,83.9,74.5,63.4,83.1,78.7,94.7,89.4,93.3,93.8
"Cc1cc(N2CCOCC2)cc2[nH]c(-c3c(NC[C@@H](O)c4cccc(Cl)c4)cc[nH]c3=O)nc12 + CN(NC(=O)CC(=O)NN(C)C(=S)c1ccccc1)C(=S)c1ccccc1 [STA4783] (first compound 0.2 µM, partner dose 0.006 µM)",115,99.5,114,105,116,76.5,65,98.6,97.7,92.9,96.9,84.2,23.4,93.6,55.4,115
"Cn1nnc2c(C(N)=O)ncn2c1=O [temozolomide] + C[C@@H]1CCN(C(=O)CC#N)C[C@@H]1N(C)c1ncnc2[nH]ccc12 [CP690550] (first compound 2 µM, partner dose 1 µM)",94.6,89,109,101,87.2,105,81.5,108,98.4,85.3,90.9,76.8,93.7,102,104,118
"O=C(Nc1cc(C(F)(F)F)cc(C(F)(F)F)c1)c1cc(Cl)ccc1O + CC1(C)NC(=O)N(c2ccc([N+](=O)[O-])c(C(F)(F)F)c2)C1=O [nilutamide] (first compound 0.016 µM, partner dose 1 µM)",103,95.1,99.7,106,107,97.2,99.4,87.5,89.6,91.2,85.9,90.1,110,115,118,103
"O=C(O)c1ccc2c(c1)nc(Nc1cccc(Cl)c1)c1ccncc12 + CN(C)S(=O)(=O)c1ccc2c(c1)/C(=C/c1cc3c([nH]1)CCCC3)C(=O)N2 [SU6656] (first compound 0.4 µM, partner dose 0.4 µM)",95.2,83.7,101,92.1,88.1,114,95.2,80.6,93.7,88.4,65.9,94.7,73.9,73.3,101,83.9
"O=C(Nc1cc(C(F)(F)F)cc(C(F)(F)F)c1)c1cc(Cl)ccc1O + CCc1ccc(CCOc2ccc(CC3SC(=O)NC3=O)cc2)nc1 [pioglitazone] (first compound 0.016 µM, partner dose 2 µM)",90.4,104,98,99.2,96.8,104,91.2,100,88.2,79,105,97.8,84,105,86.2,86.9
"O=C(Nc1cc(C(F)(F)F)cc(C(F)(F)F)c1)c1cc(Cl)ccc1O + COc1ccc(-c2ccc3c(N4CCOCC4)nc(N4C[C@@H](C)O[C@@H](C)C4)nc3n2)cc1CO [KU0063794] (first compound 0.016 µM, partner dose 0.02 µM)",93.8,100,92.8,127,77.6,102,92.2,101,72.9,88.5,101,119,99.1,89.1,98.1,105
"Cn1nnc2c(C(N)=O)ncn2c1=O [temozolomide] + COc1cc(Nc2ncc(F)c(Nc3ccc4c(n3)NC(=O)C(C)(C)O4)n2)cc(OC)c1OC [Tamatinib] (first compound 2 µM, partner dose 0.4 µM)",77,94.8,92.1,94.9,73,95,82.6,81.9,84.3,71.7,93.7,84.8,72.9,96.5,83.3,107
